# Screen size: about 310,000 compounds; about 2,200 (0.71%) showed an effect of 50% or more. Effects have a minus sign here. Some of the results follow. Where a SMILES comes first, the peptide text is derived from it. [ ]: non-standard residue; d: D form. The star is where a group is joined. ξ: configuration not given here. Piv = CC(C)(C)C(=O)*; ξNva = CCCC(N)C(=O)O
# Biological target: human ether-à-go-go-related gene (hERG) potassium channel (human, UniProt Q12809)
# Assay: primary screen, population patch clamp on CHO cells stably expressing hERG
# Sequence of human ether-à-go-go-related gene (hERG) potassium channel (Q12809 whole entry, looked up): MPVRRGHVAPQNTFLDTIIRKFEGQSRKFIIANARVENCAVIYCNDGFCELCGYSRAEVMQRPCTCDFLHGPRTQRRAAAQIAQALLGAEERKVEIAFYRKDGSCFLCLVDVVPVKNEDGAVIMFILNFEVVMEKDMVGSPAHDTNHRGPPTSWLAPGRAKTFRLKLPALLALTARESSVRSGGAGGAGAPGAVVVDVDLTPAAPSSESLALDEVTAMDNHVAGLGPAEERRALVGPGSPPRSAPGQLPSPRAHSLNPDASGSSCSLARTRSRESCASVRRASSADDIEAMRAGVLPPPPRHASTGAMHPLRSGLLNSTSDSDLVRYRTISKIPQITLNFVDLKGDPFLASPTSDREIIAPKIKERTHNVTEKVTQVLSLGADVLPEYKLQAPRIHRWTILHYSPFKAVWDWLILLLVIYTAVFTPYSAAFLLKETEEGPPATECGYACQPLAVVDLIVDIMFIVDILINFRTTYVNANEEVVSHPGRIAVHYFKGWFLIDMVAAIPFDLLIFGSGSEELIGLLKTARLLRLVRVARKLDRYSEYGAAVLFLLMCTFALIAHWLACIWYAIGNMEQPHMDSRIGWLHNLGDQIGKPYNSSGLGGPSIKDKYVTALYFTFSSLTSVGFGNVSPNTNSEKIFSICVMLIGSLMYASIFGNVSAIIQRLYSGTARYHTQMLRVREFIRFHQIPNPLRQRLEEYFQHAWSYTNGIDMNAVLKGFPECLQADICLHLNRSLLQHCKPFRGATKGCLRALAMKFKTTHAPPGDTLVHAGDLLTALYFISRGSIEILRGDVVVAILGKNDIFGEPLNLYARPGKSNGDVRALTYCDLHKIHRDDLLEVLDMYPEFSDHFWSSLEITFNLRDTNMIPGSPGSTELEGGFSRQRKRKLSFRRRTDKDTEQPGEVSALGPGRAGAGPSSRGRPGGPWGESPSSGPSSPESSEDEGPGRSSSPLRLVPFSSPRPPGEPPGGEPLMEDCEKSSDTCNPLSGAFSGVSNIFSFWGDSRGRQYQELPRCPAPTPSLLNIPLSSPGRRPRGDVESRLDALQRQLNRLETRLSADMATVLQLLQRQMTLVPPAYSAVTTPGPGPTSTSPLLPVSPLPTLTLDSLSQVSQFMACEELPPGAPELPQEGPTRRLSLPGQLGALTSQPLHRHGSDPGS
row,SMILES,"hERG current change (%, negative = inhibition) at 1uM [%]"
1,CC(C)Cn1cnc2c1c(=O)n(CC(=O)NN)c(=O)n2Cc1ccccc1,13.9
2,Cc1ccc(S(=O)(=O)NCc2ccc(C(=O)NC3CCCCC3)cc2)cc1,11.5
3,O=c1[nH]c(=S)[nH]c(O)c1/C=C1/C=c2ccccc2=N1,16.8
4,CC(C)C[C@H](NC(=O)c1nc[nH]c1C(=O)N1CCc2ccccc2C1)C(=O)OCc1ccccc1,6.56
5,COc1ccccc1C(=O)Nc1nnc(-c2ccc(F)cc2)s1,2.59
6,COc1ccc(S(=O)(=O)NC(C)C(=O)NCc2cccnc2)cc1Cl (stereo not shown),10.3
7,C/C(=N\NC(=S)NCc1ccccc1)C1CCCCC1,12.5
8,O=C(NNC(=O)C1CCCCC1)c1ccncc1,9.67
9,OCCC1CN(Cc2cccn2-c2nccs2)CCN1CCc1ccccc1 (stereo not shown),-57.1
10,O=C(O)CCc1n[nH]c(=S)[nH]c1=O,5.95
11,COc1cc(CNc2ncc(-c3ccc(Cl)cc3)n2C)cc(OC)c1OC.O=C(O)C(=O)O,-16
12,COc1ccc(NC(=O)CCCn2cc([N+](=O)[O-])cn2)cc1,1.91
13,COc1ccc(NC(=O)CC2COc3ccccc3O2)c(OC)c1 (stereo not shown),0.807
14,COc1ccccc1S(=O)(=O)Cc1ccc(C(=O)NCCCN2CCN(c3ccc(F)cc3)CC2)o1,-68.3
15,COc1ccc(Nc2nnc(SCC(=O)Nc3ccc4[nH]c(=O)[nH]c4c3)s2)cc1,5.92
16,Cc1cccc(NS(=O)(=O)c2ccc(C(=O)NCC(c3ccccc3)N(C)C)cc2)c1C (stereo not shown),10.5
17,CCCC(NC(=O)CNC(=O)C(C)(C)C)C(=O)O (stereo not drawn) (Piv-Gly-[ξNva]-OH),1.25
18,COC(=O)[C@]1(CC(C)C)N[C@H](c2ccc(-c3cccc(Cl)c3)cc2)[C@@H]2C(=O)N(C)C(=O)[C@@H]21.O=C(O)C(F)(F)F,10.6
19,COc1cc(C2NC(=S)NC3=C2CCc2ccccc23)cc(OC)c1OC (stereo not shown),11.5
20,CCC(C)(C)n1nnnc1C(c1ccccc1F)N1CCC(C(N)=O)CC1 (stereo not shown),10.4
21,CC1Cc2ccccc2N1C(=O)Cn1cnc2ccccc2c1=O (stereo not shown),19.3
22,Cc1ccc(OCCn2c(NC(=O)c3ccco3)nc3ccccc32)cc1,-0.342
23,CN(Cc1ccccc1)C(=S)NC(=O)c1ccccc1,-3.02
24,O=C(COC(=O)Cc1cn2ccsc2n1)NC12CC3CC(CC(C3)C1)C2,9.85
25,COC(=O)C1=C(C(=O)OC)[C@@H]2Nc3ccccc3[C@@]23C[C@@H](C(=O)OC)N(C(C)=O)C3=N1,10.4
26,O=C(CN1CCOCC1)c1c[nH]c2ccccc12,9.04
27,O=C(NCc1ccccc1)c1ccc(Cl)cc1[N+](=O)[O-],13.3
28,Cc1occc1-c1nnc(SCC(=O)Nc2ccccc2-c2ccccc2)n1C,-4.18

row,SMILES,"hERG current change (%, negative = inhibition) at 1uM [%]"
1,COc1ccc(Nc2nc3nonc3nc2N2CCCCC2)cc1,3.39
2,O=C(N/N=C/c1ccncc1)c1ccc2c(c1)OCO2,18.1
3,Cc1cc(C)c(C(=O)COC(=O)c2nn(C)c(=O)c3ccccc23)cc1C,-3.12
4,CC1(C)CC(=O)C(C2c3ccccc3S(=O)(=O)c3ccccc32)C(=O)C1,16.3
5,COC(=O)c1ccc(COc2ccc(/C=N/Nc3cccc(C(=O)O)c3)cc2)cc1,19.2
6,C1CCCCC1.OCCN1CCN(C2Cc3cc(Cl)ccc3Sc3ccc(Cl)cc32)CC1 (stereo not shown),15.5
7,CCCc1cc(C(=O)N2CCN(C(c3ccccc3)c3ccccc3)CC2)no1,0.879
8,CCSCc1nnc(SCC(=O)Nc2cccc(SC)c2)n1C,2.41
9,CC1CCCCC1NC(=O)/C(C#N)=C/c1ccc2c(c1)OCCO2 (stereo not shown),0.128
10,Cc1cccc(/C(N)=N/OC(=O)c2cccnc2)c1,1.85
11,O=C(CCCN1C(=O)c2cccc3cccc(c23)C1=O)N1CCc2ccccc2C1,-2.69
12,CCN(CC)C(=O)Cn1cc(C(=O)C2CC2)c2ccccc21,9.94
13,CCOC(=O)Cc1csc(NC(=O)CCN2C(=O)c3cccc([N+](=O)[O-])c3C2=O)n1,9.69
14,COc1cc(C(=O)N(C)CCOc2ccc(C)cc2)ccc1OC1CCN(C(C)=O)CC1,11.8
15,COc1cccc(CSc2nc3ccccc3[nH]2)c1,3.25
16,Cc1cc(NS(=O)(=O)c2ccc(NC(=S)NC(=O)c3cccc(S(=O)(=O)N(C)C)c3)cc2)no1,7.27
17,O=C(COc1cccc2ccccc12)N/N=C/c1ccc(Sc2nc3ccccc3s2)o1,29.1
18,COc1cc(/C=N/Nc2cc(C)nc(N)n2)ccc1O,5.51
19,CN(C(=O)c1cccc(S(=O)(=O)N2CCCC2)c1)C1CCCCC1,8.18
20,CCCCn1c(/N=C/c2ccc3c(c2)OCO3)nc2ccccc21,7.75
21,O=C(NCc1ccccc1)NC1(C(=O)Nc2ccc3c(c2)OCCO3)CCCCC1,9
22,Cc1ccc(OCc2ccc(C(=O)O)o2)cc1C,15.7
23,CCCOc1ccc(N2CC(C(=O)Nc3ncccc3C)CC2=O)cc1 (stereo not shown),6.33
24,COc1ccc(-c2ccc(C(=S)N3CCN(C(C)=O)CC3)o2)cc1,-24.7
25,CCOC(=O)CC(C#N)c1c[nH]c2ccccc12 (stereo not shown),13.8
26,COc1ccc(CN2CCN(Cc3csc(C(C)=O)c3)CC2CCO)c(C)c1C (stereo not shown),-8.18
27,CC(C)(C)c1ccc(Oc2coc3cc(OCC(=O)O)ccc3c2=O)cc1,-7.15
